Assay results from the supplement of paper PMC9151546.
Many values rest on one well or one pass, so single values are uncertain.

Columns and labels:
[1] = test system: CHO-K1; assay: hypodiploid nuclei frequency (% of nucleated events); higher = more hypodiploid events (aneugenic)
Experimental: (§1)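 Flow-cytometric in vitro micronucleus assay (Litron MicroFlow) in CHO-K1 cells in 96-well plates, 19 concentrations (4.5-200 µM, n=1 per concentration). Without S9, cells were exposed for 24 h and sampled at 48 h. With Aroclor 1254-induced rat liver S9, cells were exposed for 3-4 h and sampled at 27-28 h. Read-outs are %MN and %hypodiploid nuclei relative to nucleated events, and relative survival as the nuclei-to-bead ratio versus the 1% DMSO vehicle control (x100).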

[2] = test system: CHO-K1; assay: relative survival (nuclei to bead ratio vs DMSO control) (% of vehicle control); higher = more surviving cells
Experimental: as §1

[3] = test system: CHO-K1; assay: micronucleus frequency (% of nucleated events); higher = more micronuclei (genotoxic)
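Throughout, for hypodiploid nuclei frequency (% of nucleated events): hypodiploid nuclei gated on a flow cytometer with 488 nm excitation after SYTOX Green staining, cultures at 37 °C, positive controls vinblastine without S9 and cyclophosphamide with S9.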
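Throughout, for micronucleus frequency (% of nucleated events): cells lysed with nuclei stained by SYTOX Green, then micronucleus-gated events counted against nucleated events by flow cytometry with 488 nm excitation.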
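Throughout, for relative survival (nuclei to bead ratio vs DMSO control): Lysed-cell nuclei stained with SYTOX Green and counted against counting beads by flow cytometry at 488 nm excitation, with vinblastine (no S9) and cyclophosphamide (plus S9) as positive controls.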

O=C(O)C1C(C(=O)O)C2(Cl)C(Cl)=C(Cl)C1(Cl)C2(Cl)Cl (stereo not given) [Chlorendic acid]
Settings | hypodiploid nuclei frequency, [1] [%] | micronucleus frequency, [3] [%] | relative survival, [2]
concentration: 4.5 (µM), S9 metabolic activation: with S9, exposure time: 3-4 hours | 0.22 | 1.24 | 124
concentration: 4.5 (µM), S9 metabolic activation: without S9, exposure time: 24 hours | 0.92 | 0.88 | 119
concentration: 5.63 (µM), S9 metabolic activation: with S9, exposure time: 3-4 hours | 0.3 | 1.68 | 122
concentration: 5.63 (µM), S9 metabolic activation: without S9, exposure time: 24 hours | 0.68 | 1.14 | 126
concentration: 7.04 (µM), S9 metabolic activation: with S9, exposure time: 3-4 hours | 0.36 | 1.3 | 110
concentration: 7.04 (µM), S9 metabolic activation: without S9, exposure time: 24 hours | 0.7 | 1.24 | 112
concentration: 8.8 (µM), S9 metabolic activation: with S9, exposure time: 3-4 hours | 0.28 | 1.02 | 125
concentration: 8.8 (µM), S9 metabolic activation: without S9, exposure time: 24 hours | 0.6 | 1.3 | 109
concentration: 11 (µM), S9 metabolic activation: with S9, exposure time: 3-4 hours | 0.18 | 0.94 | 109
concentration: 11 (µM), S9 metabolic activation: without S9, exposure time: 24 hours | 0.64 | 1.32 | 116
concentration: 13.7 (µM), S9 metabolic activation: with S9, exposure time: 3-4 hours | 0.22 | 0.84 | 118
concentration: 13.7 (µM), S9 metabolic activation: without S9, exposure time: 24 hours | 0.62 | 1.36 | 119
concentration: 17.2 (µM), S9 metabolic activation: with S9, exposure time: 3-4 hours | 0.26 | 0.66 | 116
concentration: 17.2 (µM), S9 metabolic activation: without S9, exposure time: 24 hours | 0.58 | 1.52 | 124
concentration: 21.5 (µM), S9 metabolic activation: with S9, exposure time: 3-4 hours | 0.24 | 1.16 | 121
concentration: 21.5 (µM), S9 metabolic activation: without S9, exposure time: 24 hours | 0.76 | 1.48 | 109
concentration: 26.8 (µM), S9 metabolic activation: with S9, exposure time: 3-4 hours | 0.32 | 1.18 | 110
concentration: 26.8 (µM), S9 metabolic activation: without S9, exposure time: 24 hours | 0.98 | 1.3 | 123
concentration: 33.6 (µM), S9 metabolic activation: with S9, exposure time: 3-4 hours | 0.38 | 1.36 | 110
concentration: 33.6 (µM), S9 metabolic activation: without S9, exposure time: 24 hours | 1.34 | 1.08 | 120
concentration: 41.9 (µM), S9 metabolic activation: with S9, exposure time: 3-4 hours | 0.26 | 1.24 | 132
concentration: 41.9 (µM), S9 metabolic activation: without S9, exposure time: 24 hours | 0.9 | 0.98 | 106
concentration: 52.4 (µM), S9 metabolic activation: with S9, exposure time: 3-4 hours | 0.14 | 0.96 | 119
concentration: 52.4 (µM), S9 metabolic activation: without S9, exposure time: 24 hours | 1 | 1.28 | 128
concentration: 65.5 (µM), S9 metabolic activation: with S9, exposure time: 3-4 hours | 0.18 | 1.26 | 112
concentration: 65.5 (µM), S9 metabolic activation: without S9, exposure time: 24 hours | 1.04 | 1.04 | 126
concentration: 81.9 (µM), S9 metabolic activation: with S9, exposure time: 3-4 hours | 0.24 | 1.06 | 131
concentration: 81.9 (µM), S9 metabolic activation: without S9, exposure time: 24 hours | 0.7 | 1.6 | 138
concentration: 102 (µM), S9 metabolic activation: with S9, exposure time: 3-4 hours | 0.14 | 1.12 | 116
concentration: 102 (µM), S9 metabolic activation: without S9, exposure time: 24 hours | 1.1 | 1.56 | 142
concentration: 128 (µM), S9 metabolic activation: with S9, exposure time: 3-4 hours | 0.2 | 1.12 | 116
concentration: 128 (µM), S9 metabolic activation: without S9, exposure time: 24 hours | 1.06 | 1.68 | 120
concentration: 160 (µM), S9 metabolic activation: with S9, exposure time: 3-4 hours | 0.18 | 1.22 | 107
concentration: 160 (µM), S9 metabolic activation: without S9, exposure time: 24 hours | 1.1 | 1.74 | 121
concentration: 200 (µM), S9 metabolic activation: with S9, exposure time: 3-4 hours | 0.36 | 1.1 | 115
concentration: 200 (µM), S9 metabolic activation: without S9, exposure time: 24 hours | 1.58 | 2.08 | 122

O=c1[nH]sc2ccccc12 [1,2-Benzisothiazolin-3-one]
Settings | hypodiploid nuclei frequency, [1] [%] | micronucleus frequency, [3] [%] | relative survival, [2]
concentration: 4.5 (µM), S9 metabolic activation: with S9, exposure time: 3-4 hours | 0.25 | 0.88 | 93.6
concentration: 4.5 (µM), S9 metabolic activation: without S9, exposure time: 24 hours | 0.8 | 2.08 | 83
concentration: 5.63 (µM), S9 metabolic activation: with S9, exposure time: 3-4 hours | 0.06 | 1.44 | 77.5
concentration: 5.63 (µM), S9 metabolic activation: without S9, exposure time: 24 hours | 0.82 | 2.78 | 88.7
concentration: 7.04 (µM), S9 metabolic activation: with S9, exposure time: 3-4 hours | 0.18 | 0.88 | 96.3
concentration: 7.04 (µM), S9 metabolic activation: without S9, exposure time: 24 hours | 0.94 | 2.94 | 71.7
concentration: 8.8 (µM), S9 metabolic activation: with S9, exposure time: 3-4 hours | 0.29 | 1.83 | 64.5
concentration: 8.8 (µM), S9 metabolic activation: without S9, exposure time: 24 hours | 0.9 | 3.16 | 62.1
concentration: 11 (µM), S9 metabolic activation: with S9, exposure time: 3-4 hours | 0.14 | 1.12 | 77.3
concentration: 11 (µM), S9 metabolic activation: without S9, exposure time: 24 hours | 1.5 | 3.28 | 64.9
concentration: 13.7 (µM), S9 metabolic activation: with S9, exposure time: 3-4 hours | 0.21 | 2.25 | 71.7
concentration: 13.7 (µM), S9 metabolic activation: without S9, exposure time: 24 hours | – | – | 22
concentration: 17.2 (µM), S9 metabolic activation: with S9, exposure time: 3-4 hours | 0.11 | 1.56 | 70.8
concentration: 17.2 (µM), S9 metabolic activation: without S9, exposure time: 24 hours | 1.08 | 3.26 | 48.2
concentration: 21.5 (µM), S9 metabolic activation: with S9, exposure time: 3-4 hours | 0.35 | 2.19 | 82.6
concentration: 21.5 (µM), S9 metabolic activation: without S9, exposure time: 24 hours | 0.87 | 2.59 | 45.2
concentration: 26.8 (µM), S9 metabolic activation: with S9, exposure time: 3-4 hours | 0.37 | 1.61 | 56.9
concentration: 26.8 (µM), S9 metabolic activation: without S9, exposure time: 24 hours | – | – | 32
concentration: 33.6 (µM), S9 metabolic activation: with S9, exposure time: 3-4 hours | 0.31 | 1.53 | 70.2
concentration: 33.6 (µM), S9 metabolic activation: without S9, exposure time: 24 hours | – | – | 32.3
concentration: 41.9 (µM), S9 metabolic activation: with S9, exposure time: 3-4 hours | 0.31 | 2.23 | 53.8
concentration: 41.9 (µM), S9 metabolic activation: without S9, exposure time: 24 hours | – | – | 22.2
concentration: 52.4 (µM), S9 metabolic activation: with S9, exposure time: 3-4 hours | 0.27 | 2.51 | 43.7
concentration: 52.4 (µM), S9 metabolic activation: without S9, exposure time: 24 hours | – | – | 25.4
concentration: 65.5 (µM), S9 metabolic activation: with S9, exposure time: 3-4 hours | 0.12 | 5.09 | 45.4
concentration: 65.5 (µM), S9 metabolic activation: without S9, exposure time: 24 hours | – | – | 16.1
concentration: 81.9 (µM), S9 metabolic activation: with S9, exposure time: 3-4 hours | – | – | 32.5
concentration: 81.9 (µM), S9 metabolic activation: without S9, exposure time: 24 hours | – | – | 9.82
concentration: 102 (µM), S9 metabolic activation: with S9, exposure time: 3-4 hours | – | – | 20.5
concentration: 102 (µM), S9 metabolic activation: without S9, exposure time: 24 hours | – | – | 0.03
concentration: 128 (µM), S9 metabolic activation: with S9, exposure time: 3-4 hours | – | – | 20.2
concentration: 200 (µM), S9 metabolic activation: with S9, exposure time: 3-4 hours | – | – | 0.24
